Measurements reported in PMC4242493.
The other results are listed elsewhere or left out. The list includes weakly bound sequences.

Target: MaxL homodimer (UniProt P61244)
Experiment: universal protein-binding microarray (PBM)
Conditions: PBS-based mixture, 10 nM His-tagged protein dimer, 2% milk, 200 ng/uL BSA, 50 ng/uL salmon testes DNA, 0.02% TX-100; detection with Alexa 488 anti-His …; high values mean tight binding; most listed sequences are background and not binding sites; double strand, one strand shown

UniProt P61244, sequence (P61244 whole entry): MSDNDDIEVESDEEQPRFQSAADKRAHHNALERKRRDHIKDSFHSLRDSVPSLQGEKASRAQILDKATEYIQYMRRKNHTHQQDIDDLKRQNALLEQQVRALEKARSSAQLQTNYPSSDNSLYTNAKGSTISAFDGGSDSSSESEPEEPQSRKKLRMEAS

Sequence | binding signal (normalized occupancy)
GATCTTGA | 0.0811
AACGCGAA | 0.0761
CGTATAGC | 0.0719
ATCGATTG | 0.0721
AGTGCCGC | 0.0745
CCACTTGA | 0.0741
GGTGATAC | 0.0811
CTGCGCTC | 0.0691
AAATAGCT | 0.0707
CCGGCTTA | 0.067
CACTCCGC | 0.0748
CTCGGTTC | 0.0712
CAGCGTCC | 0.069
CCACCAGA | 0.0816
CATTTTCA | 0.0798
CTCCTCCC | 0.0718
CAACTTTA | 0.0732
ACGGAGAG | 0.0726
CAAACACC | 0.0771
AGATTCCA | 0.0786
GTCGCCAA | 0.0726
AAACGTTC | 0.0731
AATTACCT | 0.0757
CCTTTACA | 0.0797

Sequence | binding signal (normalized occupancy)
AAGTTAGT | 0.0669
CTTTTGAC | 0.0784
AGCCGACT | 0.0671
AACGAGCT | 0.0726
CAATACAG | 0.0779
AAACCCTC | 0.0736
AGTGGAGG | 0.0754
ATTTCGTG | 0.0757
ACCGTTTG | 0.0712
AGCGGCGG | 0.0668
ATATCCGG | 0.076
GTGATAAA | 0.0811
CTGCATGA | 0.083
ACGATGCG | 0.0781
ATTCGTTA | 0.0786
GCGGATAC | 0.0766
CCTTCGGA | 0.0651
TCCGCTAA | 0.0692
CGGTTTGC | 0.0697
AGACGCGA | 0.071
CTAGAAAG | 0.0742
ACCTCCTC | 0.0717
AAACTTGA | 0.0812
CATTACCC | 0.0825

Sequence | binding signal (normalized occupancy)
GCGCCAAC | 0.0726
AATCCATA | 0.0859
ATGGGACA | 0.0837
CACATCGC | 0.0785
CACTGTTC | 0.0718
AATGGCCA | 0.0755
ATCGAGAC | 0.0714
GAGGCGCC | 0.0651
CCTACCTC | 0.0702
GAAGGAGA | 0.0816
ACCCCCGC | 0.084
ATATTTGG | 0.0808
ATAAACGC | 0.0803
GGAGGCAA | 0.0756
GCGTATGA | 0.0735
GCTTATCC | 0.0762
ACAAATGA | 0.0834
CCCGCTAC | 0.0704
ATGTCCTG | 0.0716
AATAACAG | 0.0771
ATTGAGAG | 0.0765
AATGCTGC | 0.0788
GACGTGTA | 0.0816
CACCGCGC | 0.0783

Sequence | binding signal (normalized occupancy)
GGCCGTAC | 0.0801
AAAATTCA | 0.072
AGGCCAGA | 0.0668
ACATCACA | 0.0901
CACAGTTA | 0.078
GGCTTCCC | 0.0697
CACGGCCG | 0.0736
CGTAGTCA | 0.0766
ATATTGCG | 0.0786
AGATGACG | 0.0757
AAGTCTTC | 0.0732
TACCAAAA | 0.0707
CTTCGTGA | 0.0722
GATAACAC | 0.0816
CCACCCAC | 0.0886
GGCAATAC | 0.076
TCTGCACA | 0.0849
ACCATCCA | 0.0817
AATTTATG | 0.0806
CGGAGCAC | 0.0746
ATTGACAC | 0.0832
CGTTTAGC | 0.0714
